Source: the supplement of paper PMC10681739
± gives the standard deviation of the averaged measurements. Whole data set: some 4,000 sequences, median “arbitrary fluorescence units” near 830, cut for the highest 2% near 6,500. The list lacks most of the strong results.

molecular target: RUNX1 (UniProt Q01196); assay: RUNX1 binding intensity (PBM fluorescence), RUNX1 alone (arbitrary fluorescence units); higher = stronger binding; details: RUNX1 concentration 2 nM; ETS1 concentration 0 nM
Protocol: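 gcPBM on 36-bp genomic-derived probes (partner site mutated) containing one RUNX1 site and no ETS1 site. Recombinant human RUNX1 (2 nM) was incubated alone or with ETS1 (25 nM) and detected by anti-RUNX1 antibody fluorescence. Values are medians over 4 replicate spots (not normalised). The probes sit in constant array flanks that are not printed.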
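Note: Full-length recombinant human RUNX1 bound to double-stranded DNA microarray spots, detected with an Alexa488-labelled secondary antibody after the anti-RUNX1 primary, read as scanned spot fluorescence.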

Chain of UniProt Q01196 (Q01196 whole entry): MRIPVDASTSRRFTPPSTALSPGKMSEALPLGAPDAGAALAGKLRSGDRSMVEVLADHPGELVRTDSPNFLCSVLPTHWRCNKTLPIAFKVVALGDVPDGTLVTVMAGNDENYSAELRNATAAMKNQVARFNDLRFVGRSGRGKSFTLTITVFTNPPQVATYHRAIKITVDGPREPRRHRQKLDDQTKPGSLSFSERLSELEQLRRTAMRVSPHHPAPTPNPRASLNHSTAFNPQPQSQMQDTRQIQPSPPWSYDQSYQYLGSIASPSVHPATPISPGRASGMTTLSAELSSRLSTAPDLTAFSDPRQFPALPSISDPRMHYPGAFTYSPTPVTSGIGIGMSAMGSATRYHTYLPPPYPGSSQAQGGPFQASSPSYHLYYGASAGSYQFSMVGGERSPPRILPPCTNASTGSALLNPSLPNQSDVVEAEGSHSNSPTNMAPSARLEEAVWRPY

Sequence	RUNX1 binding intensity
GCGCCATCTCCGCTGCGCAAGGCACCACAGGCCCTG	807
ACGGTCAATGGCCGCAAACCGGGAGCAAGGCGGGAG	780
CGTGTTCCGTAACCACCACCCCTCTTCATGTTTCTC	2410
ACTCGCGCACCCCCACAGTTCCCCTTCAGGCAGTGG	915
CAGAGGACAGCATGCCAACCCCAAAACCGCAGCGAC	6310
CGTGGTACCGCAGAGGCCAATCTTCAACAGGCAGTC	1160
GGGTGGCGGTCACGTGCCCAGAACGCCCGGCGTTCG	758
AACACAGGTTGTGGGAGCAAGAAAGGAGGTGGCTTG	751
CCACTTACCGCGAGAACGCGGAGTCCTGCGCATGGC	922
GCGAGGGTGGAACGAAGCAGTGACCGCGCTCCTCTC	809
GACAAGATTGCGGGTGGGAACCCCATCAGGTTTGTT	929
ACTACAGGAGGAGACTACAGCCTAAACCACATGCAA	907
AGACCCGGGAATGGTGGGTGTTTCTTGCAACCACGG	696
GTGCCTCCCGCAAGTTCTGTCCCCTCCGTCCCTTCA	1210
CAGGGTGGAATCATGAAGAGAAACCACACTTAACCT	738
GCGCTGTACTGCGGCTTGTGCCGCTTCGGCCAGAAG	798
GGCTAAGATGGAAACCACGAGCGGAATTCAGACATA	825
CCATATCTGGCCTCCTAAGGAGGAACCACAAACCGT	932
GGCAAACAGTAAACACTCCCAGGGCTGTGGGCTCCT	749
AGGGGAGGTGAGAATAGGGTGCCCACCCCCGCATTC	710
GAGGTTCATGCGGTCCCTTTTCGGCTGTTCCCGGAG	911

Sequence	RUNX1 binding intensity
TGAAACCACCTCTGTCCAACCTGGATTCCTCTCCCG	913
GGTGCGCAGCGCGCCGCAGCGACGGACCTTCTGCAA	636 ± 40
GAAGCAGACAGGCAGTGGGTCTGAGCGGTGGAGGGA	662
CAAAACGGGACACTGGAACCAAGCGGTTATCTCAGA	759
CCTAGAACCGTAAGAGAAAGGGGCTGCGGTGCAGCA	745
GAGGTAGCCACCCACAACCAATCAGGCAACGGCGGC	720
CCGGGCGGTTGAAAAGTCCGAGAGAATCAGGCTGGA	761
CCCTCAGCGAAAGTGGAAGCTGTGGTTTCCAAAGGC	881
CTGTCCGCGACATACGGGACCTGCGGGACCGCCGAT	772
GCACAGCGGTCACAGAGGTGACGCGCAAGGAGACTG	827
TCTCTTTCGTTCTCTGGTAGCTTTGTGGTAGCTTTG	1490
CTCTTTTATACCACAAGGAGGAAAAGGACATGAACC	1150
CCGCCGGGCTGCGGCGCTGGAACTGGACCAATCCGG	751
CTTCAGCAAGGGCGAGGCCGGGCGCGGTGGCTCACG	703
TAGGGGGGCGCGGTGAGCCCCGGCGGGAATCGAAGC	716
CAATCAACCACAATGTGACCCTACAGGCGCAAAAAA	1390
TAAATCGGCAACTCGCCGCTCAGCCCGCAGCCGCCG	870
CAAAATGCGCGGTCTGGAGAGGCAACAAAGCAGTGG	832
TTAGCCGTATGTGGTTTAAAAACTTGCTGTCATTGA	1120
TTTATCCTTATTTGCTGGCTTCGCCCACAAGCACAG	1010
AAACTGCGGCGCGAAAGTCTCTCGGGAATGACGCAA	712

Sequence	RUNX1 binding intensity
AACCTCACCAGCCACAGACAGGCAGCAAGAGGGCTG	841
CCAGCAGCACGTCCCCCTTCTTCGTCCCGCAGAGGG	789
TTCTTCAGCAAGGCGGGCTTGCGCCGCAGGAGCGGG	687
AAAGGGCCTGTGGTAACAAAGCAATATCTTGTTGAA	883
TGTGTAACTGCCTGGCTTTGGTGGTTTCCCCCTCCT	792
TGAAGGGTGGTTGCCGCCTCCCCTTCGTTCCCAGTC	910
AACTGAACCACCACCACTTAACCTCTAAGGAATCGG	1100
TGGCGTGGTTTTTTTTTTTTTTTTCACCCGGCAACC	1180
GGACCTGCGGCGACCTGTAGGCGAAAGTCCGTGGCT	710 ± 13
AGTACAAAGGGGACATGTCTCTTGGTGGTTGATAAG	721
ACATGAAAAGCTGTAAGCAGTGTCTGCGGCTTTCTC	721
GCCGATTCCCGGTTCGCTCGGCCGCGGTCGCTATGG	795
CCTAGCCGACGCCCGCAATAGGCGGCAGTGGCCGGG	770
GCGCACCCGCTGCGGCCTCCACAGGCAGTGCCCGGC	745
GTTTTGTTATCGGCCCGCACCTAGAGGCCGCAAGGC	872
CCCATTGCCTGCTCTCCAGAGTTAACCACTGAAGTC	1220
AAAGAACTGCCTGAGGTGCTTGAGGTTAGGCTATGG	700
AGGGCGCCGCCTCCGGGAGCCCGCAAGCGGCCTCCG	681
ATCTTAAGTGATTCCTGACACCACAAATCCCCAAAC	893
GCCTGCCTGCGGGCGAGTGGAGTCAGGCTGAGTGTC	677
